The list shows a part of the results.
What follows are compounds tested on HSkMC (human skeletal muscle cells) (assay: cytotoxicity call (relative viability < 0.9)). Details: 10 µM.

Structure (SMILES) | cytotoxicity call
CO[C@@H]1CN(C)C(=O)c2cc(NS(C)(=O)=O)ccc2OC[C@H](C)N(C(=O)c2ccc3c(c2)OCO3)C[C@@H]1C | inactive
CC(=O)OC[C@]12[C@H](OC(=O)c3ccccc3)C[C@@H]3[C@@H](OC(C)=O)[C@]1(OC3(C)C)[C@H](C)C[C@H](OC(C)=O)[C@@H]2OC(C)=O | inactive
CN(C)C(=O)C[C@@H]1C=C[C@@H](NC(=O)C2CCOCC2)[C@@H](CO)O1 | inactive
C[C@H]1CN([C@@H](C)CO)C(=O)CCCn2cc(nn2)CO[C@@H]1CN(C)C(=O)c1cc(-c2ccccc2)on1 | inactive
C[C@H](CO)N1C[C@H](C)[C@@H](CN(C)CC2CCOCC2)Oc2cc(C#Cc3ccccc3F)ccc2S1(=O)=O | inactive
CN(C)CCNC(=O)[C@@H]1CCS(=O)(=O)[C@H]2CN(C(=O)Nc3ccccc3)C[C@@H]12 | inactive
COc1ccc(NC(=O)N(C)C[C@@H]2Oc3cc(C#CCN(C)C)ccc3S(=O)(=O)N([C@H](C)CO)C[C@H]2C)cc1 | inactive
Cc1nc(Cn2cnc3c2c(=O)n(C)c(=O)n3C)no1 | inactive
COc1ccc(CN(C)C[C@@H]2Oc3ccc(NC(=O)Nc4ccc(C(F)(F)F)cc4)cc3C(=O)N([C@H](C)CO)C[C@H]2C)cc1 | active
Cn1c2c(c(=O)n(C)c1=O)/N=N\c1c(c(=O)n(C)c(=O)n1C)/N=N\2 | inactive

These compounds were tested on HepG2 (assay: cytotoxicity call (relative viability < 0.9)). Details: 10 µM.

Structure (SMILES) | cytotoxicity call
Cc1ccc(S(=O)(=O)Nc2ccc3c(c2)CC(=O)N([C@@H](C)CO)C[C@H](C)[C@@H](CN(C)S(=O)(=O)c2ccccc2)O3)cc1 | inactive
Cn1c(=O)c2c(nc(N3CCNCC3)n2CC(=O)c2ccc(Cl)cc2)n(C)c1=O | inactive
CCC(=O)N(C)C[C@@H]1Oc2ncc(C#C[C@H](C)O)cc2C(=O)N([C@@H](C)CO)C[C@H]1C | inactive
O=C1c2c(O[C@@H]3O[C@H](CO)[C@@H](O)[C@H](O)[C@H]3O)cc(O)cc2O[C@@]1(O)Cc1ccc(O)cc1 | inactive
O=C(C[C@H]1C[C@H]2c3cc(NS(=O)(=O)c4ccc(F)cc4)ccc3O[C@H]2[C@H](CO)O1)NCc1cccnc1 | inactive
C[C@@H]1CN([C@H](C)CO)S(=O)(=O)c2ccc(C#CCN(C)C)cc2O[C@H]1CN(C)Cc1ccccc1F | inactive
N#Cc1ccc(N2CCCNCC2)nc1 | inactive
COc1ccc(NC(=O)N(C)C[C@@H]2OCCCC[C@@H](C)Oc3ccc(NC(=O)Nc4ccc(C(F)(F)F)cc4)cc3C(=O)N([C@@H](C)CO)C[C@H]2C)cc1 | inactive
CCS(=O)(=O)Nc1ccc2c(c1)C(=O)N(C)C[C@H](OC)[C@@H](C)CN(C(=O)c1ccc3c(c1)OCO3)[C@H](C)CO2 | inactive
COc1ccc(S(=O)(=O)N(C)C[C@@H]2Oc3ccc(NS(=O)(=O)c4cn(C)cn4)cc3CC(=O)N([C@@H](C)CO)C[C@H]2C)cc1 | inactive
O=C(C[C@@H]1C[C@H]2c3cc(NS(=O)(=O)c4ccccc4)ccc3O[C@H]2[C@H](CO)O1)NC1CCCCC1 | inactive
Cc1noc(C)c1S(=O)(=O)N(C)C[C@@H]1Oc2ccc(NC(=O)CCC(F)(F)F)cc2CC(=O)N([C@@H](C)CO)C[C@@H]1C | inactive
C[C@H](CO)N1C[C@H](C)[C@@H](CN(C)C(=O)NC2CCCCC2)Oc2c(NS(C)(=O)=O)cccc2C1=O | inactive
COCC(=O)N(C)C[C@H]1Oc2cc(C#CCN(C)C)ccc2S(=O)(=O)N([C@@H](C)CO)C[C@H]1C | inactive
C[C@@H]1CCCCO[C@H](CN(C)Cc2ccncc2)[C@H](C)CN([C@H](C)CO)C(=O)c2cc(NC(=O)Nc3ccc4c(c3)OCO4)ccc2O1 | inactive
C[C@@H]1CN([C@H](C)CO)C(=O)c2cccc(NC(=O)Nc3cccc4ccccc34)c2O[C@@H]1CN(C)C(=O)Nc1ccc(C(F)(F)F)cc1 | active
COc1ccc(COC[C@@]23Oc4ccccc4[C@@H](NC(=S)N2C)[C@H]3CO[Si](C)(C)C(C)(C)C)cc1 | active
C[C@@H]1CN([C@@H](C)CO)C(=O)c2cc(NC(=O)CCN3CCOCC3)ccc2O[C@@H]1CN(C)S(=O)(=O)c1cccs1 | inactive
C[C@@H]1CCCCO[C@H](CN(C)Cc2ccc(C(=O)Nc3ccccc3N)cc2)[C@@H](C)CN([C@H](C)CO)C(=O)c2cc(NS(=O)(=O)c3ccccc3)ccc2O1 | inactive
CCc1ccc(NC(=O)C2CCN(S(=O)(=O)c3c(C)[nH]c(=O)[nH]c3=O)CC2)cc1 | active
